Experimental data as given in the RNAGym collection of RNA variant scans (doi:10.1101/gad.245936.114).
This sample is rich in variants without activity.

B1: tRNA (parent)
chain: CUCUCGGUAGCCAAGUUGGUUUAAGGCGCAAGACUUUAAUUUAUCACUACGAAAUCUUGAGAUCGGGCGUUCGACUCGCCCCCGGGAGAUUUUUUCCUCGAGCAA

Variants of: B1
Experiment: nonsense suppression (GFP-seq) (ratio to wild type); higher = more function; SUP4oc tRNA, yeast GFP reporter sort-seq
Procedure, shortened: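 Each variant's nonsense suppression (GFPSEQ) is a cell-share-weighted bin median GFP/RFP relative to the unmutated parent tRNA. Yeast with genome-integrated tRNA variants from a ~3% random-mutation library, a galactose-driven GFP ochre reporter and RFP were grown in raffinose/galactose medium with 80 mg/L adenine, then sorted into GFP/RFP bins for Illumina sequencing. Variants needed ≥100 reads and ≥30 cells.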

Row | Variant | nonsense suppression
1 | CUUUCGGUUGCCAAGUUGGUUUAAGGCGUAAGACUUUAAUUUAUCACUACGAAAUCUUGAGAUCCGGCGUUCGACUCGCCCCCGGAAGAUUUUUUCCUCGAGCAA | ≤ 0.026
2 | CUGUCGGUAGCCAAGUUGGUUUAAGGCGCAAGACUUUAAUUUAUCACUACGAAAUCUUGAGAGCGGGCGCUCGACUCGCCCCCGGGGGAUUUUUUCCUCGAGCAA | ≤ 0.026
3 | CUUUCGGUAGCCAGGUUGGUUUAAGGCGCAAGACUUUAAUUUAUCACUACGAAAUCUUGAGGUCGGGCGUUCGACUCGCGGCCGGGAGUUUUUUUCCUCGAGCAA | ≤ 0.026
4 | CUUUCGGUAGCCAAGUUGGUUUAUGGCGCAAGACUUUAAUUUAUCACUACGAAAUCUUGAGAUCGGGCGUUCGACUCGUCCCCGGGAGAUUUUUUCCUCGAGCAA | ≤ 0.026
5 | CUGUCGGUAGCCAAGUUGGUUUAAGGCGCAAGACUUUAAUUUAUCACUACGAAAUCUUGAGAUCGGGCGAUCGACUCGCCCCCGGGAGAUUUUUUCCUCGAGCAA | ≤ 0.026
6 | CUUUCGGUUGCCAAGUUGGUUUAAGGCGCAAGACUUUAAUUUAUCACUACGAAAUCUUGAGAUCGGGCGUUCGACUCGCCCCCGGUAGAUUUUUUCCUCGAGCAA | ≤ 0.026
7 | CUGGCGGUAGCCAAGUUGGUUUAAGGCGCAAGACUUUAAUUUAUCACUACGAAAUCUUGAGAUCGGGCGUUCGACUCGCCCCCGGGAGAUUUUUUCCUCGAGCAA | 0.0277
8 | CUUUCGGUUGCCAAGUUGGUUUAAGGCGCAAGACUUUAAUUUAUCACUACGAAAUCUUGAGAUCGGGCGUUCGACUCGCCCCCGGGAGAUUUUUUCCUCGAGCAA | ≤ 0.026
9 | CUGUCGGUAGCCAAGUUGGUUUAAGGCGCAAGACGUUAAUUUAUCACUACGAAAUCUUGAGAUCGGGCGUUCGACUCGCCCCCGGGAGAUUUUUUCCUCGAGCAA | ≤ 0.026
10 | CUUUCGGUAGCCAAGUUGGUUUAAGGCGCAAGACUUUAAUUUAUCACUACGAAAUCUUGAGAUCGGGCGUUCGACUCGCCCCCGGGUGAUUUUUUCCUCGAGCAA | ≤ 0.026
11 | CUUUCGGUAGCCAAGUUGGUUUAAGGCGCCAGACUUUAAUUUAUCACUACGAAAUCUUGAGAUCGGGCGUUCGACUGGCCCCCGGGAGAUUUUUUCCUCGAGCAA | ≤ 0.026
12 | CUUUCGGUAGCCAAGUUGGUUUAAGGCGCAGGACUUUAAUUUAUCACUACGAAAUCUUGAGAUCGGGCGUUCGACUCGCCCCCGGGAGAUUUUUUCCUCGAGCAA | 0.0805
13 | CUUUCGGUAGCCAAGUUGGUUUAAGGCGCACGACUUUAAUUUAUCACUACGAAAUCUUGAGAUCGGGCGUUCGACUCGCCCCCGGGAGAUUUUUUCCUCGAGCAA | ≤ 0.026
14 | CUGUCGGUAGCCAAGUGGGUUUAAGGCGCAAGACUUUAAUUUAUCACUACGAAAUCUUGAGAUCGGGCGUUCAACUCGCCCCCGGGAGAUUUUUUCCUCGAGCAA | ≤ 0.026
15 | CUUUCGGUAGCCAUGUUGGUUUAAGGCGCGAGACUUUAAUUUAUCACUACGAAAUCUUAAGAUCGGGCGUUCGACUCGGCCCCGGGAGAUUUUUUCCUCGAGCAA | ≤ 0.026
16 | CUUUCGGUAGCCUUGUUGGUUCAAGGCGCGAGACUUUAAUUUAUCACUACGAAAUCUUGAGAUCGGGCGUUCGACACGCCCCCGGGAGAUUUUUUCCUCGAGCAA | ≤ 0.026
17 | CUGUCGGUAGCCAAGAUGGUUUAAGGCGCAAGACUUUAAUUUAUCACUACGAAAUCUUGAGAUCGGGCGUUCGACUCGCCCCCGGGAGAUUUUUUCCUCGAGCAA | ≤ 0.026
18 | CUUUCGGUCGCCAAGCUGAUUUAAGGCGCAAGACUUUAAUUUAUCACUACGAAAUCUUGAGAUCGGGCGUUCGACCUGCCCCCGGGAGAUUUUUUCCUCGAGCAA | ≤ 0.026
19 | CUUUCGGUAGCCAAGUUGGUUUAAGGCGCGAGAUUUUAAUUUAUCACUACGAAAUCUUGAGAUCGGGCGUUCGACUCGCCCCCGGGAGAUUUUUUCCUCGAGCAA | ≤ 0.026
20 | CUUUCGGUUGCCAUGUUGGUUUAAGGCCCAAGACUUUAAUUUAUCACUACGAAAUCUUGAGAUCGGGCGUUCGACACGCCCCCGGGAGAUUUUUUCCUCGAGCAA | ≤ 0.026
21 | CUUUCGGUAGCCAAGUUGGUUUAAGGCGCAAGACUUUAAUUUAUCACUACGAAAUCUUGAGAUCGGGCGUUCGCCUCGCCCCCCGGAGAUUUUUUCCUCGAGCAA | ≤ 0.026
22 | CUGUCGGUAGCCAAGGUAGUUUAAGGCGCAAGACUUUAAUUUAUCACUACGAAGUCUUGAGAUCGGGCUUUCGACUCGCCCCCGGGAGAUUUUUUCCUCGAGCAA | ≤ 0.026
23 | CUGCCGGUAGCCACGUUGGUUUAAGGCGCAAGACUUUAAUUUAUCACUACGAAAUCUUGAGAUCGGGCGGUCGACUCGCCCCCGGGAGAUUUUUUCCUCGAGCAA | ≤ 0.026
24 | CUUUCGGUAGCCAAGUUGGUUUAAGGCGCAAGACUUUAAUUUAUCACUACGAAAUCUUGCGAUCGGUCGUUCGACUCGCCCCCGGAACAUUUUUUCCUCGAGCAA | ≤ 0.026
25 | CUUUCGGUAGCCAAGUUGGUUUCAGGCGCAAGACUUUAAUUUAUCACUACGAAAUCUUGAGAUCGGGCGUUCGACUCGCCCCCGGGAGAUUUUUUCCUCGAGCAA | ≤ 0.026
26 | CUUUCGGUAGCCCAGUUGGUUUAAGGCGUAAGGCUUUAAUUUAUCACUACGAAAUCUUGAGAUCGGGCGUUCGCCUCGCCCCCGGGAGAUUUUUUCCUCGAGCAA | ≤ 0.026
27 | CUUUCGGUAGCCAAGUUGGUUUUAGGCGCAAGACUUUAAUUUAUCACUACGAAAUCUUGAGAUCGGGCGUUCGCCUCGCCCCCGGGAGAUUUUUUCCUCGAGCAA | ≤ 0.026

Row | Variant | nonsense suppression
28 | CUGUCGGGAGCCAAGUUGGUCUAAGGCGCAAGAUUUUAAUUUAUCACUACGAAAUCUUGAGAUCGGGCGUUCGACUCGCCCCCGGGAGAUUUUUUCCUCGAGCAA | ≤ 0.026
29 | CUUUCGGUAGCCAAGUUGGUUUAAGGCGCAAGACUUUAAUUUAUCACUACGAAAUCUUGAGAUCGGGCGUUCGACUCGCCCCCGGGAGGUUUUUUCCUCGAGCAA | ≤ 0.026
30 | CUUUCGGUAGCCGAGUUGGUUUAAGGCGCAAGAGUUUAAUUUAUCACUACGAAAUCUUAAGAUCGGACGUUCGACUCCCCCCCGGGAGAUUUUUUCCUCGAGCAA | ≤ 0.026
31 | CUUUCGGUAGCCAAGUUGGUUUAAGGCGCAAGACUUUAAUUUAUCACUACGAAAUCUUGAGUUCGGGCGUUCGACUCGCCCCCGGGAGAUUUUUUCCUCGAGCAA | ≤ 0.026
32 | CUGUCGGUAGCCAAGCUCGUUUAAGGCGCAAGACUUUAAUUUAUCACUACGAACUCUUGAGAUCGGGCGUUCGACUCGCCCCCGGGAGAUUUUUUCCUCGAGCAA | ≤ 0.026
33 | CUGUCGGGAGCCAAGUUGGUUUAAGGCGCAAGACAUUAAUUUAUCACUACGAAAUCUUGAGAUCGGGCGUUCGACUCGCCCCCGGCAGAUUUUUUCCUCGAGCAA | ≤ 0.026
34 | CUUUCGGUAGCCAAGUUGGUUUAAGGCGCGAGACUUUAAUUUAUCACUACGAAAUCUUGAGAUCGGGCGUUCGACUCGCCCCCGGGAGAUUUUUUCCUCGAGCAA | ≤ 0.026
35 | CUUUCGGUAGCCAAGUUGGUUUAAGGCGCUAGACUUUAAUUUAUCACUACGAAAUCUUGAGAUCGGGCGUUCGACUCGCCCCCGGGAGAUUUUUUCCUCGAGCAA | ≤ 0.026
36 | CUUUCGGUCGCGAAGUUGGUUUAAGGCGCAAGACUUUAAUUUAUCACUACGAAAUCUUGAGAUCGGGCGUUCGACUCGCCACCGGGAGAUUUUUUCCUCGAGCAA | ≤ 0.026
37 | CUUUCGGUAGCCGAGUUGGUUUAAGCCGCAAGACUUUAAUUUAUCACUACGAAAUCUUGAGAUCUGGCCUUCGACUCGCCCCCGGGAGAUUUUUUCCUCGAGCAA | ≤ 0.026
38 | CUUUCGGUAGCCAAGUUGGUUUGAGGCGCAAGAUUUUAAUUUAUCACUACGAAAUCUUGGGAUCGGGCGUUCGACUCGCCCCCGGGAGAUUUUUUCCUCGAGCAA | ≤ 0.026
39 | CUUUCGGUAGCCAAGUUGGUUUAAGGCGCAAGACUUUAAUUUAUCACUACGAAAUCUUGGGAUCGUGCGUUCGACUCGCCCCCGGGAGAUUUUUUCCUCGAGCAA | ≤ 0.026
40 | CUUUCGGUAGCCAAGUUGGUUUAAGGCGCUAGACUUUAAUUUAUCACUACGAAAUCUUGAGAUCGGGCGUUCGCCAAGCCCGCGAGAGAUUUUUUCCUCGAGCAA | ≤ 0.026
41 | CUGUCGGUAGCCAAGUUGGAUUAAGGCGCAAGACUUUAAUUUAUCACUACGAAAUCUUGCGAUCGGGCGUUCGACUCGCCCCCGGGAGAUUUUUUCCUCGAGCAA | ≤ 0.026
42 | CUUUCGGUAGCCAAGUUGGUUUAAGGCGCAAGACUUUAAUUUAUCACUACGAAAUCUUGUGAUCGGGCGUUCGACUCGCCCCCGGGAGAUUUUUUCCUCGAGCAA | 0.55
43 | CUUUCGGUAGCCAAGUUGGUUUAAGGCGCAAGACUUUAAUUUAUCACUACGAAAUCUUGCGAUCGGGCGUUCGACUCGCCCCCGGGAGAUUUUUUCCUCGAGCAA | ≤ 0.026
44 | CUUUCGGUAGCCAAGUUGGUUUAUGGCGCAAGACUUUAAUUUAUCACUACGAAACCUUGAGAUCGGGCAUUCGACUCGCCCCCGGGAGAUUUUUUCCUCGAGCAA | ≤ 0.026
45 | CUGUCGGUAGCCAAGUUGGAUUAAGGCGCAAGACUUUAAUUUAUCACUACGAAAUCUUGAGAUCGGGCGUUCGACUCGCCCCCGGGAGAUUUUUUCCUCGAGCAA | ≤ 0.026
46 | CUGUCGGGAGCCAAGUUGGUUUAAGGCGCAAGACUUUAAUUUAUCACUACGAAAUCUUGAGAUCGGGCGUUCGACUCGCCCCCGGGAGAUUUUUUCCUCGAGCAA | ≤ 0.026
47 | CUGGCGGUAGCCAAGUUGGUUUAAGGCGCAAGAAUUUAAUUUAUCACUACGAAAUCUUGAGAUCGGGCGUUCGACUCGCCCCCGCGAGAUUUUUUCCUCGAGCAA | ≤ 0.026
48 | CUGUCGGUAGCCAAGUUGGUUUAAGGCGCAAGACUUUAAUUUAUCACUACGAAAUCUUGAGAUCGGGCGUCCGACUCGCCCCCGGGAGAUUUUUUCCUCGAGCAA | ≤ 0.026
49 | CUUUCGGUAGCCAAGUUGGUUUCAGGCGCAACACUUUAAUUUAUCACUACGAAAUCUUGAGAUCGGGGGUUCGACUCGCCCCCGGGAGAUUUUUUCCUCGAGCAA | ≤ 0.026
50 | CUUUCGGUUGCCAAGUUGGUUUAAGGCGCGAGACUUUAAUUUAUCACUACGAAUUCUUGAGAUCGGACGUUCGACUCGCCCCCGGGAGAUUUUUUCCUCGAGCAA | ≤ 0.026
51 | CUGUCGGUAGCCAAGUUGGUUUAAGGCGCAAGACAUUAAUUUAUCACUACGAAAUCUUGAGAUCGGGCAUUCGACACGCCCCGGGGAGAUUUUUUCCUCGAGCAA | ≤ 0.026
52 | CUGUCGGUAGCCAAGUUGGUCUAAGGAGCAAGACUUUAAUUUAUCACUACGAAAUCUUGAGAUCGGGCGUUCGACUCGCCCCCGGGAGAUUUUUUCCUCGAGCAA | ≤ 0.026
53 | CUUUCGGUCGCCAAGUUGGUUUAAGGCGCAAGACUUUAAUUUAUCACUACGAAAUCUUGAGAUCGGGCGUUCGACUGGCCCCCGGGAGAUUUUUUCCUCGAGCAA | ≤ 0.026
54 | CUUUCGGUAGCCAAGUUGGUUUAAGGCGCAAGACUUUAAUUUAUCACUACGAACUCUUGAGAUCGGGCGUUCGACUCGCCCCCGGGAGAUUUUUUCCUCGAGCAA | 0.079
